These are yes or no findings as the source states them, for the method shown. In cells and extracts the contact can be indirect. Some entries that bind do so weakly or less than the wild type.
How the values were obtained:
[1] = molecular target: dopamine D3 receptor fused to Renilla luciferase (human) (UniProt P35462); experiment: FRET or BRET; BRET saturation in HEK-293T cells co-transfected with a constant amount of D3R-Rluc cDNA (0.7 ug) and increasing amounts of receptor-YFP cDNA; 48 h after transfection; HBSS pH 7.4 with 0.1% glucose; 5 uM coelenterazine H
[2] = molecular target: dopamine D3 receptor (endogenous) (human (endogenous in 59HCE cells and human ciliary body)) (UniProt P35462); experiment: proximity ligation; fixed, permeabilised 59HCE cells; anti-D3R antibody with PLUS oligonucleotide, anti-MT1R or anti-MT2R antibody with MINUS oligonucleotide (Duolink); cells also treated 18 h with the TRPV4 agonist GSK1016790A (1-10,000 nM), which lowered the signal
[3] = molecular target: dopamine D3 receptor (endogenous) (human (endogenous in 59HCE cells and human ciliary body)) (UniProt P35462); experiment: proximity ligation; in situ on 10 um sections of human ciliary body from normotensive (n = 2) and glaucoma (n = 2) donors; anti-D3R-PLUS and anti-MT1R- or anti-MT2R-MINUS probes (Duolink); signal lower in glaucoma samples

Protein sequences, listed by entry. Tags and fused reporters are not part of them.
UniProt P35462: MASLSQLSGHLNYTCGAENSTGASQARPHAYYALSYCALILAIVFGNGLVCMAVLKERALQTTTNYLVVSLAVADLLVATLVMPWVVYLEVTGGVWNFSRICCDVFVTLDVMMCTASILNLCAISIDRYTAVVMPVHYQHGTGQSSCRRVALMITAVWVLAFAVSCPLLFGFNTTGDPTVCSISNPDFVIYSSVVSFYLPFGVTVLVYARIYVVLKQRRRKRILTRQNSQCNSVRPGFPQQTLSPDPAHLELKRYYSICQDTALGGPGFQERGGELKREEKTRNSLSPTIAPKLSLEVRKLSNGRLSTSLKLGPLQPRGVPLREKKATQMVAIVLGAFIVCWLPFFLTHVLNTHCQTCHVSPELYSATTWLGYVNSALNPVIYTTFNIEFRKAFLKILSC
UniProt Q92847: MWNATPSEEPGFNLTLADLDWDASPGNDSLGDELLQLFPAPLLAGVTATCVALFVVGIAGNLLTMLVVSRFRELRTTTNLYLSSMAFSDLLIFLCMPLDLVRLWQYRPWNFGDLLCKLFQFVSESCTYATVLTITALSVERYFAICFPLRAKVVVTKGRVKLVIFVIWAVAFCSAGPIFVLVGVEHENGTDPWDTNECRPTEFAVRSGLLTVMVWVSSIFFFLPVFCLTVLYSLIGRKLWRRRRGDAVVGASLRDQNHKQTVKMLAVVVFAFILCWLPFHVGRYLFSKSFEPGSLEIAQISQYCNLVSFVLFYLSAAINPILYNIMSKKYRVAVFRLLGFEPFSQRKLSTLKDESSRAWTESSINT
UniProt P48039: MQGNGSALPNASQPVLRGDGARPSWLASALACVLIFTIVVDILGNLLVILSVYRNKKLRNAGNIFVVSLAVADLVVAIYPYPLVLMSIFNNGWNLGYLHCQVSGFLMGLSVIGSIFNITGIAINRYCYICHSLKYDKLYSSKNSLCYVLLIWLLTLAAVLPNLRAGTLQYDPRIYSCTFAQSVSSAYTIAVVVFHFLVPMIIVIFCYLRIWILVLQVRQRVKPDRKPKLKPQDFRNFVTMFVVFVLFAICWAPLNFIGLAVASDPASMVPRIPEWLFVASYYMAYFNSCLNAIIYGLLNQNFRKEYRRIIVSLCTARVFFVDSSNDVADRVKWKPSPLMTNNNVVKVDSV

Molecule | binding [1] | binding [2] | binding [3]
ghrelin receptor GHS-R1a fused to yellow fluorescent protein (from UniProt Q92847 1-366) | no binding | – | –
melatonin MT1 receptor (endogenous) (from UniProt P48039 1-350) | – | binds | binds
melatonin MT2 receptor (endogenous) (receptor, UniProt P49286 1-362) MSENGSFANCCEAGGWAVRPGWSGAGSARPSRTPRPPWVAPALSAVLIVTTAVDVVGNLLVILSVLRNRKLRNAGNLFLVSLALADLVVAFYPYPLILVAIFYDGWALGEEHCKASAFVMGLSVIGSVFNITAIAINRYCYICHSMAYHRIYRRWHTPLHICLIWLLTVVALLPNFFVGSLEYDPRIYSCTFIQTASTQYTAAVVVIHFLLPIAVVSFCYLRIWVLVLQARRKAKPESRLCLKPSDLRSFLTMFVVFVIFAICWAPLNCIGLAVAINPQEMAPQIPEGLFVTSYLLAYFNSCLNAIVYGLLNQNFRREYKRILLALWNPRHCIQDASKGSHAEGLQSPAPPIIGVQHQADAL | – | binds | binds

From PMC7016594
